# Laboratory results as given in patent publication US11944613B2, “CYP2J2 antagonists in the treatment of pain” (FRAUNHOFER-GESELLSCHAFT ZUR FÖRDERUNG DER ANGEWANDTEN …, priority 2014, dated 2024).
# What was measured:
# [1] = tested on: lamina II neurons of spinal cord slices; experiment: sEPSC recordings in lamina II neurons of spinal cord slices; format: cell-based
# Experimental: (d) Frequency of sEPSCs. […] (E) Amplitude of sEPSCs. […] To confirm the effect of TRPV1 sensitization by 9,10-EpOME with electrophysiological means, the inventors measured sEPSCs from lamina II neurons of spinal cord slices using two capsaicin stimulations [1 μM] and incubating the cells prior to the second capsaicin stimulus with 9,10-EpOME [1 μM] (FIG. 3C). […] In combination with capsaicin, however, the sEPSC frequency was strongly potentiated (FIG. 3D). However, no difference in the amplitude of sEPSCs could be observed with either 9,10-EpOME, […] or the combination of both substances (FIG. 3E).
# [2] = tested on: TRPV1 dependent CGRP release; experiment: iCGRP release from isolated sciatic nerves or neuron enriched DRG cultures; format: cell-based, mouse
structure (smiles),measurement,setting,value
"CCCCC/C=C\CC1OC1CCCCCCCC(=O)O (stereo not drawn) [9,10-EpOME, 9,10-epoxy-12Z-octadecenoic acid]","frequency of sEPSCs, substance alone","[1]; 1 mM as printed in legend, baseline 6.9±0.4 Hz, n=5 neurons",8.2±0.8 Hz
same,"frequency of sEPSCs, 2nd capsaicin plus 9,10-EpOME","[1]; capsaicin (1 mM) plus 9,10-EpOME (1 mM) as printed, n=5 neurons",18.7±1.1 Hz
same,amplitude of sEPSCs,[1]; n=5 neurons/group,no significant effects
same,CGRP-release from DRG cultures at the higher EpOME concentration,"[2]; 2.5 μM of 9,10-EpOME",no significant increase
same,release of iCGRP from neuron enriched DRG cultures,[2]; EpOME and capsaicin together versus either substance,significantly increased
same,CGRP release from sciatic nerves,"[2]; co-stimulation 9,10-EpOME 1 μM with capsaicin 500 nM",strong increase
